Assay results reported in article PMC4336329 (PLoS ONE, 2015).
In all, about 310,000 compounds went through this assay and about 14,000 (4.5%) showed an effect of 50% or more. The effect is printed as a negative number. The list shows a part of the results.

The molecules below were run against human ether-à-go-go-related gene (hERG) potassium channel (human, UniProt Q12809) (assay: primary screen, population patch clamp on CHO cells stably expressing hERG).
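Further: peak tail current of the secondary pulse compared with the same well before compound.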

human ether-à-go-go-related gene (hERG) potassium channel, sequence (Q12809 whole entry, looked up): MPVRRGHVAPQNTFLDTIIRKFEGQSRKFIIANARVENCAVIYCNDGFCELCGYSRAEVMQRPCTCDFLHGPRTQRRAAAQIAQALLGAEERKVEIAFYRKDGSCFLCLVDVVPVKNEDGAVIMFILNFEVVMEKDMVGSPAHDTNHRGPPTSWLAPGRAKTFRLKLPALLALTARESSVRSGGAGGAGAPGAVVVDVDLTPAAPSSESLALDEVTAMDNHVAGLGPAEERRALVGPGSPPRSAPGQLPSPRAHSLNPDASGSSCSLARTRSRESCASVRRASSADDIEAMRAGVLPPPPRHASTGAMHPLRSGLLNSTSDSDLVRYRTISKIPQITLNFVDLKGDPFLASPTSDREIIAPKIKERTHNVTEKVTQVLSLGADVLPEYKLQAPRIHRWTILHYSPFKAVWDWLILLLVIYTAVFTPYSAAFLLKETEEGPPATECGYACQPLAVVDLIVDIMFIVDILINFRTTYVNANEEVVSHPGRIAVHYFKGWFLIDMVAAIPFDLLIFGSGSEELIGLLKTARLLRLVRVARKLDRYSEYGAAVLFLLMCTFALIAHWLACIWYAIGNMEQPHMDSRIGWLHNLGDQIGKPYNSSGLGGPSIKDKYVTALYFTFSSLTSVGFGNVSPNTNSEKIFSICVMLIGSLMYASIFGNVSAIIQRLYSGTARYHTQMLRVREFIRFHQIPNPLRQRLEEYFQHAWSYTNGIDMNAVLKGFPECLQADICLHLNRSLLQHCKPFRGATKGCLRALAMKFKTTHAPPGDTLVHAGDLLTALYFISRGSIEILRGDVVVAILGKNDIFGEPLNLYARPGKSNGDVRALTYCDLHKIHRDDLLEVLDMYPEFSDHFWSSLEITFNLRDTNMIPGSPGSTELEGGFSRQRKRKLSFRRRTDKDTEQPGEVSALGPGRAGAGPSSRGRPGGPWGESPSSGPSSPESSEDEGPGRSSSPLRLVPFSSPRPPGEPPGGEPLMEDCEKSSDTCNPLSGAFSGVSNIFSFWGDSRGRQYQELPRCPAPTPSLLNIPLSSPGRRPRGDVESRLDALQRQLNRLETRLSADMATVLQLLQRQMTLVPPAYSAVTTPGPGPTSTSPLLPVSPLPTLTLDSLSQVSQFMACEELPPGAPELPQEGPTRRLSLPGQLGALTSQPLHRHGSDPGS

Row | SMILES | hERG current change (%, negative = inhibition) at 10uM
1 | COc1ccc(Cl)cc1NC(=O)CCN1C(=O)C2CC=CCC2C1=O (stereo not shown) | 2.79%
2 | CCC(Sc1ncccc1C(=O)OC(C)C)C(=O)N1CCOCC1 (stereo not shown) | 7.62%
3 | Cc1ccc(C(=O)Nc2nc3n(n2)C(c2ccccc2)CC(=O)N3)cc1 (stereo not shown) | 14.5%
4 | Cc1coc2cc3oc(=O)c(CC(=O)N(C)CC(=O)O)c(C)c3cc12 | 16.6%
5 | COc1cc(NC(=O)c2cccnc2Sc2ccc(C)c(C)c2)cc(OC)c1OC | 9.79%
6 | CCCn1nnnc1NCc1ccccc1F | 8.11%
7 | CCCNc1c(N)c(=O)c1=O | 6.3%
8 | CCO[C@H]1OC(C(=O)N2CCN(C)CC2)=C[C@@H](C(C)(C)C)[C@@H]1CCCO | 0.924%
9 | Cc1ccn2c(=O)c(C(=O)NC3CCCCC3C)c(O)nc2c1 (stereo not shown) | 3.26%
10 | Cc1cnc(C(=O)OCC(=O)NC(=O)c2ccccc2)cn1 | 12.8%
11 | Cc1cccc(NC(=O)CCNS(=O)(=O)c2cccc3nonc23)c1C | 12.4%
12 | COc1ccc(OC)c(NC(=O)C2=C(C)Nc3ncnn3C2c2cccs2)c1 (stereo not shown) | 2.8%
13 | Cc1cccc(Nc2nnc(SCc3cc(=O)n4cc(C)ccc4n3)s2)c1 | 22%
14 | CCOc1ccccc1NC(=O)C1CCCN(S(C)(=O)=O)C1 (stereo not shown) | 7.31%
15 | Cn1c2c(c(=O)n(C)c1=O)C(c1ccc(Br)cc1)C(C#N)=C(N)N2 (stereo not shown) | 11.6%
16 | Cc1ccc(Cn2c(=O)cc(C(=O)O)c3ccccc32)cc1 | -1.27%
17 | COc1cc(S(=O)(=O)NCc2ccc(F)cc2)ccc1-n1cnnn1 | -40.2%
18 | CC(C)(C)NC(=O)C1CC2CCCCC2CN1 (stereo not shown) | 13%
19 | CSc1ccc(C2CC(=O)Nc3nc(SC)[nH]c(=O)c32)cc1 (stereo not shown) | 15%
20 | CNC(=O)CSc1nc(-c2ccccc2)c(-c2ccccc2)[nH]1 | -8.63%

Row | SMILES | hERG current change (%, negative = inhibition) at 10uM
21 | CC(=O)Oc1ccc(N2C(=O)c3cccc4c([N+](=O)[O-])ccc(c34)C2=O)cc1 | 24.3%
22 | Cc1nnc(NC(=O)c2c(F)c(F)c(F)c(F)c2F)s1 | 18.5%
23 | COC(=O)C1=CN(Cc2ccc(OC)cc2)C=C(C(=O)OC)C1c1ccsc1 | 26%
24 | Cc1nnc(SCC(=O)N2CCN(S(=O)(=O)c3ccccc3)CC2)s1 | -4.48%
25 | CCOc1ccccc1N1CCN(S(=O)(=O)c2ccc3c4c(cccc24)C(=O)N3)CC1 | -18.9%
26 | CC(=O)CC(=O)Nc1ccc(C(N)=O)cc1 | 9.92%
27 | COc1c2c(nc3occc13)C(CC=C(C)C)(OC)C(=O)C=C2 (stereo not shown) | -0.182%
28 | COc1ccccc1NCC(=O)N1CCN(S(=O)(=O)c2ccccc2)CC1 | 1.34%
29 | CC(=O)Nc1ccc(N(C(=O)c2ccco2)C(C(=O)NC2CCCC2)c2ccncc2)cc1 (stereo not shown) | 9.75%
30 | CCc1nnc(NC(=O)CCC(=O)N2CCN(Cc3cc(F)ccc3OC)CC2)s1 | 7.44%
31 | COc1ccc(N2CCN(C(=O)c3ccc4nc(N5CCCCC5)sc4c3)CC2)cc1 | 7.28%
32 | COc1cc(NC(=O)Cn2nc(Cc3cccnc3)c3ccccc3c2=O)cc(OC)c1OC | -0.339%
33 | O=C(Nc1ccc(F)cc1)C1CC(=O)n2cnnc2N1 (stereo not shown) | 12.4%
34 | O=C(O)c1c[nH]c2ccc(S(=O)(=O)N3CCN(c4ccc(F)cc4)CC3)cc2c1=O | -11.4%
35 | O=C1CCCN1c1nccs1 | 21.2%
36 | CCN(Cc1ccccc1)Cc1cccc([N+](=O)[O-])c1 | -23.5%
37 | COc1ccc(CN2CC(=O)N(c3ccccc3OC)C2=S)cc1OC | 5.92%
38 | Cc1ccc(S(=O)(=O)N(C)C)cc1NC(=O)CN1c2cccc3cccc(c23)S1(=O)=O | 10.2%
39 | CCN(CC)C(=O)CSc1nnc(-c2ccco2)o1 | 3.66%
40 | O=C(Cn1c2ccccc2c2nc3n(c(=O)c21)CCS3)Nc1ccccc1 | 13.3%

Row | SMILES | hERG current change (%, negative = inhibition) at 10uM
41 | C/C(=N\Nc1nc(C)cc(C)n1)c1ccc(N2CCOCC2)cc1 | -5.51%
42 | COc1ccc(-c2csc3nc(-c4ccccc4F)oc(=O)c23)cc1OC | -3.61%
43 | CCOC(=O)/C(C#N)=C/c1ccc(N2CCCCC2)cc1 | -60.9%
44 | C=C(C)COc1ccc(-c2ncncc2-c2ccccc2OC)c(O)c1 | 1.92%
45 | Cc1csc(CNc2ncnc3ccc(-c4ccc5c(c4)OCCO5)cc23)c1 | 5.22%
46 | O=c1[nH]c(=O)n(Cc2ccc(F)cc2)c(O)c1/C=N/Nc1ccccc1 | 4.85%
47 | FC(F)(F)C(F)(F)C(F)(F)c1nnc2ccc(N3CCOCC3)nn12 | -4.23%
48 | O=C(Nc1nc2c(s1)CN(Cc1ccccc1)CC2)C1CCCC1 | -18.8%
49 | CCn1c2ccccc2c2cc(NC(=O)CSc3nnc(-c4ccccc4OC)n3N)ccc21 | 7.44%
50 | Cc1cc(=O)n(Cc2ccc(OC(C)C)cc2)c(=S)[nH]1 | -5.37%
51 | O=C(CN1CCc2cc3c(cc2C1)OCCCO3)Nc1cccc([N+](=O)[O-])c1 | -8.91%
52 | CC(C)(C)c1ccc(CS(=O)CC(O)CO)cc1 (stereo not shown) | 19.3%
53 | O=C(NC1(N2CCOCC2)CC1)c1ccc(Cl)cc1 | 19.5%
54 | CC(C)NC(=O)CCc1nnc(Cc2cccc(C(F)(F)F)c2)o1 | 10.7%
55 | CCNc1ccc(P(=S)(N(C)C)N(C)C)cc1 | -10.1%
56 | CCOC(=O)C1CCCN(C(=O)c2cc(=O)c3ccccc3o2)C1 (stereo not shown) | -0.632%
57 | CCOCCCNC(=O)c1ccc(CS(=O)(=O)Cc2ccc(C)cc2)o1 | 6.15%
58 | C/C(=N\NC(=O)COc1ccc(C(C)(C)C)cc1)c1cc2ccccc2o1 | -14.7%
